Several values for one entry are separate records, joined by “and”; a condition that tells them apart may be missing. Equal values may be shown once. Over roughly 2,900 compounds, “NF-kB SEAP reporter activity, fold change vs agonist alone” has its median near 0.99; the highest 2% begin near 2.6. Some of the results follow.
Assays:
[1] = system: RAW-Dual; experiment: NF-kB SEAP reporter activity, fold change vs agonist alone; higher = enhanced NF-kB activity
Method in brief: (§1)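 RAW-Dual macrophages (50,000 cells/well in DMEM, 384-well plates) received 50 nL of library stock by pin tool, then a PRR agonist 1 h later, and were kept at 37 °C, 5% CO2. After 20 hours, supernatant was read for IRF by QuantiLuc luminescence and for NF-κB by QuantiBlue absorbance at 620 nm. Reporter activity is fold change over agonist-alone wells. Cytotoxic wells had IncuCyte confluency below 70% of agonist controls in both mask sets.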

[2] = system: RAW-Dual; experiment: NF-kB SEAP reporter activity, fold change vs agonist alone; cytotoxicity flag (confluency mask): not cytotoxic; higher = enhanced NF-kB activity
Method in brief: as §1

[3] = system: RAW-Dual; experiment: NF-kB SEAP reporter activity, fold change vs agonist alone; cytotoxicity flag (confluency mask): cytotoxic (confluency <70% of control); higher = enhanced NF-kB activity
Method in brief: as §1

[4] = library stock concentration (final ~1000-fold dilution): 10 mM, cytotoxicity flag (confluency mask): not cytotoxic, agonist: Imiquimod (TLR7) […]
[5] = library stock concentration (final ~1000-fold dilution): 10 mM, cytotoxicity flag (confluency mask): not cytotoxic, agonist: MPLA (TLR4) […]
[6] = agonist: ODN 1826 (TLR9) 0.5 ug/mL
[7] = agonist: Pam2CSK4 (TLR2/6) 0.1 ug/mL
[8] = agonist: Pam3CSK4 (TLR2/1) 0.1 ug/mL

CCCC(=O)Nc1cccc(NC(=O)c2ccccc2Br)c1
NF-kB SEAP reporter activity [1, 4]: 1.06
NF-kB SEAP reporter activity [1, 5]: 0.952

CCCC(=O)Nc1cccc(NC(=O)c2ccccc2Br)c1 (library stock concentration (final ~1000-fold dilution): 10 mM)
NF-kB SEAP reporter activity ([2]; agonist: LPS (TLR4) 0.1 ug/mL): 0.939
NF-kB SEAP reporter activity [2, 6]: 0.996
NF-kB SEAP reporter activity [2, 7]: 0.966
NF-kB SEAP reporter activity [2, 8]: 1.15

Cc1nc(N(C)C(=O)Cc2ccc(-c3ccccn3)cc2)sc1S(N)(=O)=O (library stock concentration (final ~1000-fold dilution): 10 mM)
NF-kB SEAP reporter activity ([2]; agonist: LPS (TLR4) 0.1 ug/mL): 1.71
NF-kB SEAP reporter activity [2, 6]: 0.442
NF-kB SEAP reporter activity [2, 7]: 0.948
NF-kB SEAP reporter activity [2, 8]: 0.808

Cc1nc(N(C)C(=O)Cc2ccc(-c3ccccn3)cc2)sc1S(N)(=O)=O
NF-kB SEAP reporter activity [1, 4]: 0.584
NF-kB SEAP reporter activity [1, 5]: 0.964

O=C(Nc1ccc(OC(F)(F)Cl)cc1)c1cnc(N2CCC(O)C2)c(-c2ccn[nH]2)c1 (configuration not stated)
NF-kB SEAP reporter activity [1, 4]: 0.855
NF-kB SEAP reporter activity [1, 5]: 1.42

O=C(Nc1ccc(OC(F)(F)Cl)cc1)c1cnc(N2CCC(O)C2)c(-c2ccn[nH]2)c1 (configuration not stated) (library stock concentration (final ~1000-fold dilution): 10 mM)
NF-kB SEAP reporter activity ([2]; agonist: LPS (TLR4) 0.1 ug/mL): 1.26
NF-kB SEAP reporter activity [2, 6]: 0.686
NF-kB SEAP reporter activity [2, 7]: 0.635
NF-kB SEAP reporter activity [2, 8]: 0.506

COc1nc(C)cnc1NS(=O)(=O)c1cccnc1-c1ccc(-c2nnco2)cc1
NF-kB SEAP reporter activity [1, 4]: 0.819
NF-kB SEAP reporter activity [1, 5]: 0.896

COc1nc(C)cnc1NS(=O)(=O)c1cccnc1-c1ccc(-c2nnco2)cc1 (library stock concentration (final ~1000-fold dilution): 10 mM)
NF-kB SEAP reporter activity ([2]; agonist: LPS (TLR4) 0.1 ug/mL): 1.06
NF-kB SEAP reporter activity [2, 6]: 1.02
NF-kB SEAP reporter activity [2, 7]: 1.01
NF-kB SEAP reporter activity [2, 8]: 1.11

CC(COc1ccccc1)N(CCCl)Cc1ccccc1.Cl (configuration not stated)
NF-kB SEAP reporter activity [1, 4]: 0.881
NF-kB SEAP reporter activity [1, 5]: 0.687

CC(COc1ccccc1)N(CCCl)Cc1ccccc1.Cl (configuration not stated) (library stock concentration (final ~1000-fold dilution): 10 mM)
NF-kB SEAP reporter activity ([2]; agonist: LPS (TLR4) 0.1 ug/mL): 0.31
NF-kB SEAP reporter activity [2, 6]: 0.918
NF-kB SEAP reporter activity [2, 7]: 0.258
NF-kB SEAP reporter activity [2, 8]: 0.925

C/C(O)=C(\C#N)C(=O)Nc1ccc(C(F)(F)F)cc1
NF-kB SEAP reporter activity [1, 4]: 2.08
NF-kB SEAP reporter activity [1, 5]: 1.03

C/C(O)=C(\C#N)C(=O)Nc1ccc(C(F)(F)F)cc1 (library stock concentration (final ~1000-fold dilution): 10 mM)
NF-kB SEAP reporter activity ([2]; agonist: LPS (TLR4) 0.1 ug/mL): 0.789
NF-kB SEAP reporter activity [2, 6]: 1.3
NF-kB SEAP reporter activity [2, 7]: 0.564
NF-kB SEAP reporter activity [2, 8]: 0.688

C[N+]1(C)C2CCC1CC(OC(=O)C(O)c1ccccc1)C2 (configuration not stated)
NF-kB SEAP reporter activity [1, 4]: 0.931
NF-kB SEAP reporter activity [1, 5]: 1.01

C[N+]1(C)C2CCC1CC(OC(=O)C(O)c1ccccc1)C2 (configuration not stated) (library stock concentration (final ~1000-fold dilution): 10 mM)
NF-kB SEAP reporter activity ([2]; agonist: LPS (TLR4) 0.1 ug/mL): 0.856
NF-kB SEAP reporter activity [2, 6]: 0.973
NF-kB SEAP reporter activity [2, 7]: 1.08
NF-kB SEAP reporter activity [2, 8]: 1.03

CN(C)c1ncnc2nc[nH]c12 (library stock concentration (final ~1000-fold dilution): 10 mM)
NF-kB SEAP reporter activity ([2]; agonist: LPS (TLR4) 0.1 ug/mL): 0.948
NF-kB SEAP reporter activity [2, 6]: 0.973
NF-kB SEAP reporter activity [2, 7]: 1.08
NF-kB SEAP reporter activity [2, 8]: 1.01

CN(C)c1ncnc2nc[nH]c12
NF-kB SEAP reporter activity [1, 4]: 0.939
NF-kB SEAP reporter activity [1, 5]: 0.995

CCCc1nc(C)c2c(=O)[nH]c(-c3cc(S(=O)(=O)N4CCN(CC)CC4)ccc3OCC)nn12.Cl.O.O.O
NF-kB SEAP reporter activity [1, 4]: 1.07
NF-kB SEAP reporter activity [1, 5]: 1.05

CCCc1nc(C)c2c(=O)[nH]c(-c3cc(S(=O)(=O)N4CCN(CC)CC4)ccc3OCC)nn12.Cl.O.O.O (library stock concentration (final ~1000-fold dilution): 10 mM)
NF-kB SEAP reporter activity ([2]; agonist: LPS (TLR4) 0.1 ug/mL): 1.37
NF-kB SEAP reporter activity [2, 6]: 0.93
NF-kB SEAP reporter activity [2, 7]: 0.912
NF-kB SEAP reporter activity [2, 8]: 1.2

C=Cc1c(C)c2cc3nc(cc4[nH]c(cc5nc(cc1[nH]2)C(C)=C5CCC(=O)O)c(CCC(=O)OC)c4C)C1(C)C3=CC=C(C(=O)OC)C1C(=O)OC (configuration not stated)
NF-kB SEAP reporter activity ([1]; library stock concentration (final ~1000-fold dilution): 10 mM, cytotoxicity flag (confluency mask): cytotoxic (confluency <70% of control), agonist: Imiquimod (TLR7) […]): 0.297
NF-kB SEAP reporter activity ([1]; library stock concentration (final ~1000-fold dilution): 10 mM, cytotoxicity flag (confluency mask): cytotoxic (confluency <70% of control), agonist: MPLA (TLR4) […]): 0.349

C=Cc1c(C)c2cc3nc(cc4[nH]c(cc5nc(cc1[nH]2)C(C)=C5CCC(=O)O)c(CCC(=O)OC)c4C)C1(C)C3=CC=C(C(=O)OC)C1C(=O)OC (configuration not stated) (library stock concentration (final ~1000-fold dilution): 10 mM)
NF-kB SEAP reporter activity ([3]; agonist: LPS (TLR4) 0.1 ug/mL): 0.243
NF-kB SEAP reporter activity [3, 6]: 0.233
NF-kB SEAP reporter activity [3, 7]: 0.193
NF-kB SEAP reporter activity [3, 8]: 0.191

NC(=O)Nc1sc(-c2ccc(F)cc2)cc1C(N)=O (library stock concentration (final ~1000-fold dilution): 10 mM)
NF-kB SEAP reporter activity ([3]; agonist: LPS (TLR4) 0.1 ug/mL): 0.276 and 0.305
NF-kB SEAP reporter activity [3, 6]: 0.188 and 0.21
NF-kB SEAP reporter activity [3, 7]: 0.0797 and 0.0735
NF-kB SEAP reporter activity [3, 8]: 0.139 and 0.173

C/C=C1/C2C=C(C)CC1(N)c1ccc(=O)[nH]c1C2 (configuration not stated)
NF-kB SEAP reporter activity ([1]; library stock concentration (final ~1000-fold dilution): 2 mM, cytotoxicity flag (confluency mask): not cytotoxic, agonist: Imiquimod (TLR7) […]): 0.822
NF-kB SEAP reporter activity ([1]; library stock concentration (final ~1000-fold dilution): 2 mM, cytotoxicity flag (confluency mask): not cytotoxic, agonist: MPLA (TLR4) […]): 1.1

C/C=C1/C2C=C(C)CC1(N)c1ccc(=O)[nH]c1C2 (configuration not stated) (library stock concentration (final ~1000-fold dilution): 2 mM)
NF-kB SEAP reporter activity ([2]; agonist: LPS (TLR4) 0.1 ug/mL): 1.33
NF-kB SEAP reporter activity [2, 6]: 1.01
NF-kB SEAP reporter activity [2, 7]: 1.14
NF-kB SEAP reporter activity [2, 8]: 1.01

CCCCCCCC(=O)NC(CN1CCCC1)C(O)c1ccc2c(c1)OCCO2 (configuration not stated) (library stock concentration (final ~1000-fold dilution): 10 mM)
NF-kB SEAP reporter activity ([2]; agonist: LPS (TLR4) 0.1 ug/mL): 0.923
NF-kB SEAP reporter activity [2, 6]: 0.99
NF-kB SEAP reporter activity [2, 7]: 1.01
NF-kB SEAP reporter activity [2, 8]: 1.02

CCCCCCCC(=O)NC(CN1CCCC1)C(O)c1ccc2c(c1)OCCO2 (configuration not stated)
NF-kB SEAP reporter activity [1, 4]: 1.08
NF-kB SEAP reporter activity [1, 5]: 1.24

C#CCNC1CCc2ccccc21.CS(=O)(=O)O (configuration not stated) (library stock concentration (final ~1000-fold dilution): 10 mM)
NF-kB SEAP reporter activity ([2]; agonist: LPS (TLR4) 0.1 ug/mL): 1.32
NF-kB SEAP reporter activity [2, 6]: 0.944
NF-kB SEAP reporter activity [2, 7]: 0.701
NF-kB SEAP reporter activity [2, 8]: 1.06

C#CCNC1CCc2ccccc21.CS(=O)(=O)O (configuration not stated)
NF-kB SEAP reporter activity [1, 4]: 0.895
NF-kB SEAP reporter activity [1, 5]: 0.95
